The target in series [1] is T1, MCF-7 cells (endogenous L1CAM) (Homo sapiens, UniProt P32004).
T1 construct: which express endogenous L1CAM at various levels; endogenous in cells; host or cells: MCF-7
In words: Flow cytometry binding to MCF-7 cells. Here is the method: (§1) Binding Analysis. […] Dissociation constants (KD) for binding to soluble human and cynomolgus monkey L1CAM-His were determined using biolayer interferometry (BLI). In addition, EC50 values for binding to cell-bound L1CAM were established by flow cytometry using HEK293T/FT cells overexpressing human or mouse L1CAM, MCF-7 cells, and MDA-MB-231 cells. In addition, the epitope regions of the mAbs were determined by BLI interaction analysis with L1CAM subdomains (Ig and FN) expressed individually, and by a BLI competition experiment to identify epitope bins.
(§2) Binding to L1CAM on Cells. […] Cells were then incubated with an AlexaFluor 647 goat anti-human Fc secondary antibody. After washing, the stained cells were analyzed by flow cytometry.
(In general: Flow cytometry measures light scatter and fluorescence of single cells or particles in a stream.)

Series [2] deals with T2, MDA-MB-231 cells (endogenous L1CAM) (Homo sapiens, UniProt P32004).
T2 construct: MDA-MB-231 cells, a breast cancer cell line that endogenously expresses L1CAM; endogenous in cells; host or cells: MDA-MB-231
T2 sequence (P32004 20-1257): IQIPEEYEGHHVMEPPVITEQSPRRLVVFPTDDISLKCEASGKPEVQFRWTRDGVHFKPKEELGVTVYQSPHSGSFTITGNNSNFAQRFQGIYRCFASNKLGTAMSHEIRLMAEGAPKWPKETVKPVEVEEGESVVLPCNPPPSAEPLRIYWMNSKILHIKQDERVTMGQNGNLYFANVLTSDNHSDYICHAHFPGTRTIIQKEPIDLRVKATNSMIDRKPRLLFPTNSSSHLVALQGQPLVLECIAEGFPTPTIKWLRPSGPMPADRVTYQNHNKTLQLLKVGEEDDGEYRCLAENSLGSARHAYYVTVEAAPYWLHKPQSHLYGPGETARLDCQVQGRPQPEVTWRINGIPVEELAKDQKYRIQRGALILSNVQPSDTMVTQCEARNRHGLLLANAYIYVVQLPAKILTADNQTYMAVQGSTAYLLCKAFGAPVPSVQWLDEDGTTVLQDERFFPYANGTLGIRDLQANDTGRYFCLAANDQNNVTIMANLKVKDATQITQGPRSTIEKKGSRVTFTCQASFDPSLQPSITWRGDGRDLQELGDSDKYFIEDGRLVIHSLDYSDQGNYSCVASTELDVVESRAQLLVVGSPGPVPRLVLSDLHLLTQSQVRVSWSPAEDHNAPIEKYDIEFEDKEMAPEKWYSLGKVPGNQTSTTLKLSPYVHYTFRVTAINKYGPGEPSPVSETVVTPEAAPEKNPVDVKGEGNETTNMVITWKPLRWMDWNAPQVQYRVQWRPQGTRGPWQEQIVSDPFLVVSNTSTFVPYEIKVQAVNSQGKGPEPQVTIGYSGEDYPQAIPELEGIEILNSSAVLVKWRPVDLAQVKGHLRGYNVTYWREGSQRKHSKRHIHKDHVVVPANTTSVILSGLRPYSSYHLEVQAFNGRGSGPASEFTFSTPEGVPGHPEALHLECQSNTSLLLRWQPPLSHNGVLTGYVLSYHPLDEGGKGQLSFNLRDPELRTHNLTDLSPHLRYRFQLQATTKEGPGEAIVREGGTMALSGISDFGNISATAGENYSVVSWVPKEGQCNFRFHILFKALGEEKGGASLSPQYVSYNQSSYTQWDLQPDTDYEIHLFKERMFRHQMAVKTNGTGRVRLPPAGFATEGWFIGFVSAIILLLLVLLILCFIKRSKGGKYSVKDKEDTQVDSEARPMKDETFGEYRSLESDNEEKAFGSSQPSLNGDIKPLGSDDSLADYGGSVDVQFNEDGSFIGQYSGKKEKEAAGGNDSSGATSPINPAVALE
In words: Flow cytometry binding to MDA-MB-231 cells. As to the method: (§3) Hybridoma Screening. Binding to human L1CAM protein was tested by ELISA and to a HEK293T cell line overexpressing human L1CAM by flow cytometry. […] Cross-reactivity to cynomolgus L1CAM was not assessed at this point, as it is >99% homologous to human L1CAM. […] The antibodies were tested for binding to MDA-MB-231 cells, a breast cancer cell line that endogenously expresses L1CAM, followed by analysis of their internalization efficacy in MDA-MB-231 cells.
Binding Analysis. […] Dissociation constants (KD) for binding to soluble human and cynomolgus monkey L1CAM-His were determined using biolayer interferometry (BLI). […] In addition, the epitope regions of the mAbs were determined by BLI interaction analysis with L1CAM subdomains (Ig and FN) expressed individually, and by a BLI competition experiment to identify epitope bins.
Briefly, CDR-grafted heavy and light chains were expressed in various combinations and the antigen-binding properties were evaluated. Dissociation constant (KD) of various humanized antibodies was determined by biolayer interferometry (BLI) (FIG. 8). Further, binding to 293 FT cells and MDA-MB-231 cells expressing L1CAM was detected by FACS analysis (FIG. 9).
Binding to L1CAM on Cells. […] After washing, the stained cells were analyzed by flow cytometry.

For series [3] the following is noted: pH 6.
The target of series [4] is HEK293T cells overexpressing human L1CAM (Homo sapiens, UniProt P32004). In words: Flow cytometry binding to HEK293T cells overexpressing human L1CAM. Set-up: expressed in transfected cells. Here is the method: as §3, §1, §2
Sequence of HEK293T cells overexpressing human L1CAM (P32004 20-1257): as above
The target in series [5] is mouse L1CAM (Mus musculus, UniProt P11627). In words: BLI binding to mouse L1CAM. Here is the method: Cross-reactivity to Mouse L1CAM. Affinity to mouse L1CAM was measured by BLI using an Octet Red96e instrument. […] The data was prepared by reference well subtraction, and response curves were globally fit to a 1:1 Langmuir binding model.
Sequence of mouse L1CAM (P11627 20-1260): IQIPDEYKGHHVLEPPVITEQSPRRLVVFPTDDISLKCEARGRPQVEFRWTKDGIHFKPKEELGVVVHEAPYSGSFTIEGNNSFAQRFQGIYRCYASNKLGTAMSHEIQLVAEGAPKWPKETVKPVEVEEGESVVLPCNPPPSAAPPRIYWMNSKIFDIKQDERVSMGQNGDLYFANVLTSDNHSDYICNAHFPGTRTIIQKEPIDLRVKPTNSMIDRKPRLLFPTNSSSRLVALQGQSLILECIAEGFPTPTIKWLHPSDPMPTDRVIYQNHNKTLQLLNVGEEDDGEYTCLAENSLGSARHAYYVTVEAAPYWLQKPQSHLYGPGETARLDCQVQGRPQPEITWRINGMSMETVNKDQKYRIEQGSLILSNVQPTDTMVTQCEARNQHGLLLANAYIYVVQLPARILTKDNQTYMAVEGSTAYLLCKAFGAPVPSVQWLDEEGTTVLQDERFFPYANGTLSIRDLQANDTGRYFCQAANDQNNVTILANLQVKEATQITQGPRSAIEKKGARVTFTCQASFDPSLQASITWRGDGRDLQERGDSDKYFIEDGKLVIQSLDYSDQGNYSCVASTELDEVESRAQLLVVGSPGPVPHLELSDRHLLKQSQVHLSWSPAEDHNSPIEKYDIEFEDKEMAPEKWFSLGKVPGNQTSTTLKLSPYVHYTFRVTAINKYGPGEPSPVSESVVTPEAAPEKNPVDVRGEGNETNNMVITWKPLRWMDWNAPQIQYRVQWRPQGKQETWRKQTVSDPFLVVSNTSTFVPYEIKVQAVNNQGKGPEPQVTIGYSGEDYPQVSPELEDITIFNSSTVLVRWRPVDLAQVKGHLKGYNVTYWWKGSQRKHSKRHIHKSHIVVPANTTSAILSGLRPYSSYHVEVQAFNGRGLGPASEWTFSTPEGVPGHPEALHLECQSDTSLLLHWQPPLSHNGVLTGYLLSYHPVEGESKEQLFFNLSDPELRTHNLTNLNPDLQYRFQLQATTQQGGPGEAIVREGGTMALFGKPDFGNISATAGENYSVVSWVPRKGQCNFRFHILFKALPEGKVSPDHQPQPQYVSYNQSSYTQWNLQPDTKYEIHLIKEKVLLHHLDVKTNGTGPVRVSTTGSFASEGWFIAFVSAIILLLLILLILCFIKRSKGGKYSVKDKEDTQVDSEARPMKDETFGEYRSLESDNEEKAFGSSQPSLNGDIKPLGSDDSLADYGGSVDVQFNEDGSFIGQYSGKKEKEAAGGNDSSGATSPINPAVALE
(BLI is a label-free optical method that tracks binding on a fibre tip over time.)

In series [6] the target is T3, HEK293FT cells transiently transfected with mouse L1CAM (Mus musculus, UniProt P11627).
T3 construct: expressed in transfected cells; host or cells: HEK293FT (transient)
T3 sequence (P11627 20-1260): as above
In words: Flow cytometry binding to HEK293FT cells transiently transfected with mouse L1CAM. As to the method:
as §3, §1
The binding curves for each antibody and cell line normalized to secondary antibody only staining (MFI ratio) are shown in FIGS. 14A-14C. EC50 values were determined by non-linear regression (Table 70). […] It is possible that differences in the conformation and oligomerization of L1CAM, depending on the surface expression level, contributed to the binding pattern. […]

T1 sequence (P32004 20-1257): as the sequence (P32004 20-1257) above

B1: TDI-Y-005 (antibody)
heavy: EVQMVESGGGLVQPGGSLRLSCAAPGFIFSSYNMNWVRQAPGKGLEWVSYISSSSSTTYYADSVKGRFTISRDNAKNSLYLQMNSLRDEDTAVYYCASLYSGYDYYYYYGMDVWGQGTTVTVSS[human IgG1 constant region not printed]
light: DIVMTQTPLSSPVSLGQPASISCRSSQSLVHSDGNTYLSWLQQRPGQPPRVLIYKISKRFSGVPDRFSGSGAGTDFTLKISRVEAEDVGVYYCMQATQFPFTFGPGTKVDIKRTVAAPSVFIFPPSDEQLKSGTASVVCLLNNFYPREAKVQWKVDNALQSGNSQESVTEQDSKDSTYSLSSTLTLSKADYEKHKVYACEVTHQGLSSPVTKSFNRGEC
In the case of B1, the “EC50 for binding to cells” value in series [1], in series [2] and in series [4] was “single-digit nM range” each time. Also, in series [3], the “concentration at which the antibody is soluble” value is “up to 100 mg/ml”.

B2: TDI-Y-004 (antibody)
heavy: QVQLVQSGAEVKKPGSSVKVSCKASGYTFTNYYIHWVRQAPGQGLEWMGKIGPGSGSPYYQGMFKDRVTITADESTSTAYMELSSLRSEDTAVYYCARWLLPFDYWGQGTLVTVSS[human IgG1 constant region not printed]
light: EIVLTQSPGTLSLSPGERATLSCRASSSVNYMHWYQQKPGQAPRLLIYATSILASGIPDRFSGSGSGTDYTLTISRLEPEDFAVYYCQQFSSDPLTFGGGTKVEIKRTVAAPSVFIFPPSDEQLKSGTASVVCLLNNFYPREAKVQWKVDNALQSGNSQESVTEQDSKDSTYSLSSTLTLSKADYEKHKVYACEVTHQGLSSPVTKSFNRGEC
With B2, the “dissociation constant (KD), mouse L1CAM” value in series [5] (BLI Octet Red96e, Ni-NTA biosensors, 1:1 Langmuir fit) is listed as “No binding”. Further, the KD result in series [5] (BLI, soluble mouse L1CAM (monomer)) was “No binding”. Further, the “EC50 for binding to cells” value in series [1], in series [2] and in series [4] was “single-digit nM range” in each case. In addition, in series [6], the “Cross-reactivity to mouse LICAM on cells (HEK293T): EC50” value is “No binding”. For the same molecule, the “concentration at which the antibody is soluble” value in series [3] is recorded as “up to 100 mg/ml”.

These data come from patent US20250340636A1, “ANTIBODIES TARGETING L1CAM AND USES THEREOF” (MEMORIAL SLOAN-KETTERING CANCER CENTER, priority 2023, published 2025).
